Measured values: patent US20230151111A1 (AKESO BIOPHARMA, published 2023)

T1: human NT5E(1-552)-his (human, UniProt P21589 27-552)
T1 construct: The entry starts at Met 1
T1 sequence: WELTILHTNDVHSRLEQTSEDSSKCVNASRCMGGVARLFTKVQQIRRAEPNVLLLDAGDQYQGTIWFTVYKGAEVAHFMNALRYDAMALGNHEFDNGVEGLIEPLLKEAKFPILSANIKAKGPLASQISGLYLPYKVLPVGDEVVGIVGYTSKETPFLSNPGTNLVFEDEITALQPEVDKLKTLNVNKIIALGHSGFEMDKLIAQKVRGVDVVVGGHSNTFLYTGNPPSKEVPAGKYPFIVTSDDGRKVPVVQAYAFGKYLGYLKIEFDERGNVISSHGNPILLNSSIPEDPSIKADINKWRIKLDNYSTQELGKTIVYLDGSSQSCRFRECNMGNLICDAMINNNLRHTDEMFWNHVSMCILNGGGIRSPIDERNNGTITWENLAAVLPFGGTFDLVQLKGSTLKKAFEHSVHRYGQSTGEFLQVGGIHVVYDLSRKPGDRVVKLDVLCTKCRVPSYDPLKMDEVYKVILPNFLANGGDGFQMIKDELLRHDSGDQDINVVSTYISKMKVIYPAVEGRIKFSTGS

T2: human NT5E-Biotin (human, UniProt P21589 27-552, limits assumed, biotin label, site not stated)
T2 construct: Captured on streptavidin-coated plates; also called human NTSE-Biotin
T2 sequence (looked up): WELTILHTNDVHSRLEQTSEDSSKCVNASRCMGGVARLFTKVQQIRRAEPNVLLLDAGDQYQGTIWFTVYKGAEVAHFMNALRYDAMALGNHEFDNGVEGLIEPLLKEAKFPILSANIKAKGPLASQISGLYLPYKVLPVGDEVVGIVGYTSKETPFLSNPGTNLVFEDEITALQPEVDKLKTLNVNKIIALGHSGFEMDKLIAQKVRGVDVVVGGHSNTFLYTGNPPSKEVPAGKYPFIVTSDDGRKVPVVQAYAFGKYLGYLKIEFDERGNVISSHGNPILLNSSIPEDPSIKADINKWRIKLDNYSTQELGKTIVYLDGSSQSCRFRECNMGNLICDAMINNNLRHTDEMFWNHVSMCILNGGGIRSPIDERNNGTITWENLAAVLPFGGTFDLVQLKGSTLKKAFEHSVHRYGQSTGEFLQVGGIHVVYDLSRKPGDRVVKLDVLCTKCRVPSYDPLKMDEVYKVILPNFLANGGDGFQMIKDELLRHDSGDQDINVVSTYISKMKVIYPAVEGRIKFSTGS


Key:
human PD-1-mFc-biotin [1] = biological target: T3, human PD-1-mFc-biotin (human, UniProt Q15116 in part, limits assumed, biotin label, site not stated); test: competitive ELISA, blocking of PD-1-mFc-biotin binding to coated PD-L1-mFc
Method: (§1) After incubation, the microplate was blocked with a PBS solution containing 1% BSA at 37° C. for 2 h. […] The antibody was serially diluted to 7 concentrations in a gradient ratio of 1:3 on a dilution plate with 10 μg/mL as the starting concentration, and a blank control was set. […] Then the mixture after reaction was added to the coated microplate, and the microplate was incubated for at 37° C. for 30 min. After incubation, the plate was washed three times with PBST and dried. SA-HRP (KPL, 14-30-00) working solution was added, and the plate was incubated at 37° C. for 30 min. After incubation, the plate was washed four times and patted dry. Then TMB (Neogen, 308177) was added in the dark for chromogenesis for 5 min, and a stop solution was added to terminate chromogenic reaction. Then the microplate was put into a microplate reader immediately, and the OD value of each well in the microplate was read at 450 nm. The data were analyzed and processed by SoftMax Pro 6.2.1.

human NT5E(1-552)-his = biological target: T1, human NT5E(1-552)-his; test: BLI (Fortebio), NT5E(1-552)-his on HIS1K sensor, antibody 0.31-25 nM, 30 C
Method: The sample dilution buffer was PBS (0.02% Tween-20, 0.1% BSA, pH 7.4). […] The protein was dissociated in the buffer for 180 s. […] The data were analyzed by 1:1 model fitting to obtain affinity constants.

PD-1-mFc [2] = biological target: T4, PD-1-mFc (human, UniProt Q15116 in part, limits assumed); test: BLI (Fortebio), PD1-mFc on AMC sensor, antibody 0.62-50 nM, 30 C
T4 construct: also called human PD-1-mFc
Method: The sample dilution buffer was PBS (0.02% Tween-20, 0.1% BSA, pH 7.4). […] The data were analyzed by 1:1 model fitting to obtain affinity constants.

PD-1-mFc [3] = biological target: T4, PD-1-mFc; test: ELISA, PD-1-mFc coated
T4 sequence (Q15116 other isoform, or with tags, fused parts or gaps limits assumed): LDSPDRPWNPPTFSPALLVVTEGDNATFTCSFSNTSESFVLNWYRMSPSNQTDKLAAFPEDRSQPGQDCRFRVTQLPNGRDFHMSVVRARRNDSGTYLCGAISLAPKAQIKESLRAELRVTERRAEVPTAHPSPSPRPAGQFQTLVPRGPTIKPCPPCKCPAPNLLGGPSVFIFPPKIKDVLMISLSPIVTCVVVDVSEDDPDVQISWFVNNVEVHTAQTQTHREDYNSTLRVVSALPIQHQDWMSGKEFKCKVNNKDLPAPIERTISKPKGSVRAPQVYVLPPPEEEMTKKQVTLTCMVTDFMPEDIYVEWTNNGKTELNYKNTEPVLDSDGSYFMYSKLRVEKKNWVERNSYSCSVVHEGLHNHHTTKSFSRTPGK
Method: Then the microplate coated with antigens was washed once with PBST, and then blocked with a PBS solution containing 1% BSA as blocking solution at 37° C. for 2 h. After blocking, the microplate was washed 3 times with PBST. The microplate containing the test antibodies was incubated at 37° C. for 30 min, and then washed 3 times with PBST. […] The microplate was put into a microplate reader immediately, and the OD value of each well in the microplate was read at 450 nm. The data were analyzed and processed by SoftMax Pro 6.2.1.

human NT5E-Biotin = biological target: T2, human NT5E-Biotin; test: ELISA, NT5E-biotin on streptavidin
Method: After incubation, the microplate coated with streptavidin was washed once with PBST, and blocked with a PBS solution containing 1% BSA as a microplate blocking solution at 37° C. for 2 h. After blocking, the microplate was washed 3 times with PBST. […] Then, the plate was washed 3 times with PBST. […] The microplate containing the test antibodies was incubated at 37° C. for 30 min, and then washed 3 times with PBST. […] The microplate was put into a microplate reader immediately, and the OD value of each well in the microplate was read at 450 nm. The data were analyzed and processed by SoftMax Pro 6.2.1.

human PD-1-mFc-biotin [4] = biological target: T3, human PD-1-mFc-biotin; test: competitive ELISA, competitor coated PD-L1-mFc; antibody 50 nM
T3 sequence (Q15116 other isoform, or with tags, fused parts or gaps limits assumed): as above
Method: as §1

human PD-1-mFc-biotin [5] = biological target: T3, human PD-1-mFc-biotin; test: competitive ELISA, competitor coated PD-L1-mFc; antibody 50 nM diluted 1:3
Method: as §1

Row | EC50 (human PD-1-mFc-biotin [1]) | Kd (human NT5E(1-552)-his) | koff (human NT5E(1-552)-his) | kon (human NT5E(1-552)-his) | Kd (PD-1-mFc [2]) | koff (PD-1-mFc [2]) | kon (PD-1-mFc [2]) | EC50 (PD-1-mFc [3]) | EC50 (human NT5E-Biotin) | OD450 (human PD-1-mFc-biotin [4]) | OD450 (human PD-1-mFc-biotin [5]) | Binder
1 | 2.22 nM | 0.0577 nM | 7.09e-05 s⁻¹ | 1.23e+06 M⁻¹ s⁻¹ | 0.0113 nM | 6.03e-06 s⁻¹ | 535000 M⁻¹ s⁻¹ | 0.123 nM | 0.077 nM | 0.076 OD | – | NTPDV4 (bispecific antibody, human IgG1, kappa, also called NTPDV4(hG1TM)) heavy: QVQLVQSGAEVVKPGASVKVSCKASGYSFTGYTMNWVRQAPGQNLEWIGLINPYNAGTSYNQKFQGKVTLTVDKSTSTAYMELSSLRSEDTAVYYCARSEYRYGGDYFDYWGQGTTLTVSSASTKGPSVFPLAPSSKSTSGGTAALGCLVKDYFPEPVTVSWNSGALTSGVHTFPAVLQSSGLYSLSSVVTVPSSSLGTQTYICNVNHKPSNTKVDKKV[human IgG1 Fc with L234A L235A G237A (EU numbers) omitted]GGGGSGGGGSGGGGSGGGGSEVQLVESGGGLVQPGGSLRLSCAASGFAFSSYDMSWVRQAPGKGLDWVATISGGGRYTYYPDSVKGRFTISRDNSKNNLYLQMNSLRAEDTALYYCANRYGEAWFAYWGQGTLVTVSSGGGGSGGGGSGGGGSGGGGSDIQMTQSPSSMSASVGDRVTFTCRASQDINTYLSWFQQKPGKSPKTLIYRANRLVSGVPSRFSGSGSGQDYTLTISSLQPEDMATYYCLQYDEFPLTFGAGTKLELKR light: DIVMTQSPSSLAVSVGERVTISCKSSQSLLNSSNQKNYLAWYQQKPGQAPKLLIYFASTRESGVPDRFSGSGSGTDFTLTISSVQAEDVADYYCQQHYDTPYTFGGGTKLEIKRTVAAPSVFIFPPSDEQLKSGTASVVCLLNNFYPREAKVQWKVDNALQSGNSQESVTEQDSKDSTYSLSSTLTLSKADYEKHKVYACEVTHQGLSSPVTKSFNRGEC
2 | – | 0.0329 nM | 3.8e-05 s⁻¹ | 1.16e+06 M⁻¹ s⁻¹ | 0.14 nM | 8.55e-05 s⁻¹ | 609000 M⁻¹ s⁻¹ | 0.101 nM | 0.079 nM | – | 0.083 OD | NTPDV1 (bispecific antibody, human IgG1, kappa, Morrison form IgG-scFv, Fc with L234A/L235A/G237A; also called NTPDV1(hG1TM)) heavy: QVQLVQSGAEVVKPGASVKVSCKASGYSFTGYTMNWVRQAPGQNLEWIGLINPYNAGTSYNQKFQGKVTLTVDKSTSTAYMELSSLRSEDTAVYYCARSEYRYGGDYFDYWGQGTTLTVSSASTKGPSVFPLAPSSKSTSGGTAALGCLVKDYFPEPVTVSWNSGALTSGVHTFPAVLQSSGLYSLSSVVTVPSSSLGTQTYICNVNHKPSNTKVDKKV[human IgG1 Fc with L234A L235A G237A (EU numbers) omitted]GGGGSGGGGSGGGGSGGGGSEVQLVESGGGLVQPGGSLRLSCAASGFAFSSYDMSWVRQAPGKGLDWVATISGGGRYTYYPDSVKGRFTISRDNSKNNLYLQMNSLRAEDTALYYCANRYGEAWFAYWGQGTLVTVSSGGGGSGGGGSGGGGSDIQMTQSPSSMSASVGDRVTFTCRASQDINTYLSWFQQKPGKSPKTLIYRANRLVSGVPSRFSGSGSGQDYTLTISSLQPEDMATYYCLQYDEFPLTFGAGTKLELKR light: DIVMTQSPSSLAVSVGERVTISCKSSQSLLNSSNQKNYLAWYQQKPGQAPKLLIYFASTRESGVPDRFSGSGSGTDFTLTISSLQAEDVAVYYCQQHYDTPYTFGGGTKLEIKRTVAAPSVFIFPPSDEQLKSGTASVVCLLNNFYPREAKVQWKVDNALQSGNSQESVTEQDSKDSTYSLSSTLTLSKADYEKHKVYACEVTHQGLSSPVTKSFNRGEC
3 | 2.4 nM | 0.0792 nM | 0.000102 s⁻¹ | 1.28e+06 M⁻¹ s⁻¹ | 0.125 nM | 8.35e-05 s⁻¹ | 668000 M⁻¹ s⁻¹ | 0.11 nM | 0.084 nM | – | – | NTPDV3 (bispecific antibody, human IgG1, kappa, Morrison form IgG-scFv; also called NTPDV3(hG1TM)) heavy: QVQLVQSGAEVVKPGASVKVSCKASGYSFTGYTMNWVRQAPGQNLEWIGLINPYNAGTSYNQKFQGKVTLTVDKSTSTAYMELSSLRSEDTAVYYCARSEYRYGGDYFDYWGQGTTLTVSSASTKGPSVFPLAPSSKSTSGGTAALGCLVKDYFPEPVTVSWNSGALTSGVHTFPAVLQSSGLYSLSSVVTVPSSSLGTQTYICNVNHKPSNTKVDKKV[human IgG1 Fc with L234A L235A G237A (EU numbers) omitted]GGGGSGGGGSGGGGSGGGGSEVQLVESGGGLVQPGGSLRLSCAASGFAFSSYDMSWVRQAPGKGLDWVATISGGGRYTYYPDSVKGRFTISRDNSKNNLYLQMNSLRAEDTALYYCANRYGEAWFAYWGQGTLVTVSSGGGGSGGGGSGGGGSDIQMTQSPSSMSASVGDRVTFTCRASQDINTYLSWFQQKPGKSPKTLIYRANRLVSGVPSRFSGSGSGQDYTLTISSLQPEDMATYYCLQYDEFPLTFGAGTKLELKR light: DIVMTQSPSSLAVSVGERVTISCKSSQSLLNSSNQKNYLAWYQQKPGQAPKLLIYFASTRESGVPDRFSGSGSGTDFTLTISSVQAEDVADYYCQQHYDTPYTFGGGTKLEIKRTVAAPSVFIFPPSDEQLKSGTASVVCLLNNFYPREAKVQWKVDNALQSGNSQESVTEQDSKDSTYSLSSTLTLSKADYEKHKVYACEVTHQGLSSPVTKSFNRGEC
